In the supplement of paper PMC11417369:
± gives the standard deviation of the averaged measurements. Some of the results follow.

The sequences below were run on PfAP2-LT AP2 domain (GST-tagged) (assay: gcPBM binding intensity (ln(normalized median fluorescence intensity)); higher = stronger DNA binding).
Outline: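 Binding intensity is the highest Masliner-normalised natural-log median intensity over replicate spots in either probe orientation. To obtain it, GST-tagged P. falciparum DNA-binding domains made in E. coli were incubated for 1 h on an Agilent 4 × 180k array of primer-extended double-stranded 36-bp intergenic genomic probes plus negative controls. Detection used Alexa488 anti-GST antibody with scanning at 488 nm.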
In the case of “GATTATACAAAATATACACACGTGTACAGAAATATT [CACACA_site8305]”, the “gcPBM binding intensity (ln)” value is reported as 9.3 ± 0.35. “ATATATTTATTTATATGTACATATTATATATTATAG [XGTACX_site3371]” was tested, and the “gcPBM binding intensity (ln)” value was 8.88 ± 0.47. With “TTATATTAATTTTGTTGTACTATTTGTGCATTAAAT [XGTACX_site4790]” the “gcPBM binding intensity (ln)” value was 8.68 ± 0.52. “AAGATATGAACATTTTGTACTTAAAAATTCAATATT [XGTACX_site7103]” was tested, and the “gcPBM binding intensity (ln)” value was 8.49 ± 0.45. In the case of “CACAGACACGGACACACACACATATATAATATATAT [CACACA_site4495]”, the “gcPBM binding intensity (ln)” value is reported as 9.87 ± 0.42. For “TAAACAAATAAATATTGTACATTTTTTCCTTTTAAT [XGTACX_site5594]”, the “gcPBM binding intensity (ln)” value was 8.48 ± 0.53. With “AAGGATAATATATTAGAACACACATATATATGTAAA [CACACA_site7942]” the “gcPBM binding intensity (ln)” value was 8.92 ± 0.47. “TTTATATAAAATTATTGTACAGTTTTAATATTTTAA [XGTACX_site6807]” was tested, and the “gcPBM binding intensity (ln)” value was 8.27 ± 0.54. “TACATACACAAATACACACACAAATACATACACAAA [CACACA_site704]” was tested, and the “gcPBM binding intensity (ln)” value was 9.73 ± 0.36. “ACATTTTATATATGTAGTACATATTATAGATAATTT [XGTACX_site1976]” was tested, and the “gcPBM binding intensity (ln)” value was 8.68 ± 0.4. In the case of “AGTTGGATACGAAGATGTACAATAATAATAATTAAG [XGTACX_site3561]”, the “gcPBM binding intensity (ln)” value is reported as 8.88 ± 0.54. With “ATCAAAAACATACCTACACACACAATATGTATATAT [CACACA_site9171]” the “gcPBM binding intensity (ln)” value was 9.51 ± 0.28. In the case of “TCACTATAATAATTTACACACATTTTAAGAAAATGG [CACACA_site5867]”, the “gcPBM binding intensity (ln)” value is reported as 8.74 ± 0.42. In the case of “TATTTTATTTTTTTATGTACACAAAAAAAAAAAAAA [XGTACX_site945]”, the “gcPBM binding intensity (ln)” value is reported as 8.16 ± 0.2. For “TATTATGTTTATTAAACATGCATATATTTATTTATA [TGCATGCA_site187]”, the “gcPBM binding intensity (ln)” value was 8.64 ± 0.35. “ATATTTTATCATGTTTAATATTTATGTGGACATAAA [GTGCAC_negctrl_site275]” was tested, and the “gcPBM binding intensity (ln)” value was 8.48 ± 0.36. For “CAATGGTACATACATACACACACACTAATAAAAAAA [CACACA_site8450]”, the “gcPBM binding intensity (ln)” value was 9.62 ± 0.4. “TACAATCCATATTGTTGTACATTTATAAAATTTACA [XGTACX_site3053]” was tested, and the “gcPBM binding intensity (ln)” value was 8.45 ± 0.39. For “GTATATATATAAGAAGAAATATATAAATAAAATATA [CACACA_negctrl_site503]”, the “gcPBM binding intensity (ln)” value was 8.75 ± 0.49. For “GCTTATTAATATCATACACACATAGATATATTTATA [CACACA_site3104]”, the “gcPBM binding intensity (ln)” value was 8.91 ± 0.39. “TAAAAAATATAAACTGCACACACACTAATAAAGAAA [CACACA_site8119]” was tested, and the “gcPBM binding intensity (ln)” value was 9.59 ± 0.32. “AATATATAAATGTTGTGTACTAAGCAATATATTTTA [XGTACX_site2483]” was tested, and the “gcPBM binding intensity (ln)” value was 8.78 ± 0.45. For “ATTCGTCACATTTTTTGATATATATATATATATATA [CACACA_negctrl_site1785]”, the “gcPBM binding intensity (ln)” value was 9.7 ± 0.11. “CTATTATCGGTTCCTACACACAAATATATATGTCTA [CACACA_site3579]” was tested, and the “gcPBM binding intensity (ln)” value was 9.28 ± 0.42. For “ATATAGTTGTCATATTGTACACTTTAGGGTTGGTTA [XGTACX_site7339]”, the “gcPBM binding intensity (ln)” value was 8.94 ± 0.47. In the case of “AGGACAAGGGTTACATGTACATATATATATATATAT [XGTACX_site901]”, the “gcPBM binding intensity (ln)” value is reported as 10.2 ± 0.14. “CCTAGAAAAAAGAACTGTACATATATATATAAATAT [XGTACX_site1680]” was tested, and the “gcPBM binding intensity (ln)” value was 8.8 ± 0.41. In the case of “ATAAATAAAAATAGAACACACATATGTTTTTTTTTT [CACACA_site3556]”, the “gcPBM binding intensity (ln)” value is reported as 8.7 ± 0.47. For “TTAATTGAAACTTATTGTACTTTTTTTTTTTTTTTT [XGTACX_site8162]”, the “gcPBM binding intensity (ln)” value was 8.25 ± 0.62. “TGAAAAAATATAATTTGTACATATCAGGCAAAAATG [XGTACX_site1824]” was tested, and the “gcPBM binding intensity (ln)” value was 8.73 ± 0.41. For “ATATGCAGAGACTGTTTGCACTTTTTTATTTTATGT [GTGCAC_site9695]”, the “gcPBM binding intensity (ln)” value was 9.04 ± 0.43. With ATTATAATTACTCTAGTGCATTATAAATATGAATAA the “gcPBM binding intensity (ln)” value was 8.49 ± 0.39. For “CTCAAATTTATTAGTGGTACATAACCAAGGAAATAA [XGTACX_site225]”, the “gcPBM binding intensity (ln)” value was 8.84 ± 0.49. For “AAGTTATTTATATATACACACAAATATAAATAATAT [CACACA_site1228]”, the “gcPBM binding intensity (ln)” value was 8.88 ± 0.41. In the case of “ATAAATTATATTATTGAACACACGTTTGGTAATGTT [CACACA_site2662]”, the “gcPBM binding intensity (ln)” value is reported as 8.81 ± 0.35. For “AAAAAAATAATAAAAAGTACAAAATGTAGAAAATGT [XGTACX_site5018]”, the “gcPBM binding intensity (ln)” value was 9.43 ± 0.42. “AAAAAATAAAACATATATAATATATAATATATATAT [GTGCAC_negctrl_site447]” was tested, and the “gcPBM binding intensity (ln)” value was 8.69 ± 0.4. For “AATGTGAAAACGTGTACACATTTTATTTAATTTATC [CACACA_site5966]”, the “gcPBM binding intensity (ln)” value was 8.93 ± 0.43. For “ATATATATTATATATTGTACATATTATATTCATTAT [XGTACX_site1766]”, the “gcPBM binding intensity (ln)” value was 8.81 ± 0.41. For “TTTATTAATTTATAGTGTACATATTAATAATATATT [XGTACX_site7949]”, the “gcPBM binding intensity (ln)” value was 8.55 ± 0.41. For “AACAAGGCCCGGTACTGTACATTTTTTCATAACATT [XGTACX_site6134]”, the “gcPBM binding intensity (ln)” value was 8.8 ± 0.44. In the case of “GTATGTATATTTATCTGTACATATTTATGTATTCTT [XGTACX_site2112]”, the “gcPBM binding intensity (ln)” value is reported as 9.11 ± 0.47. With “TATATACATATATACACACACATATATTATATATAT [CACACA_site275]” the “gcPBM binding intensity (ln)” value was 9.31 ± 0.28. “AAAATATAAATTCATGTGCACATATATATTTTGTTA [GTGCAC_site9782]” was tested, and the “gcPBM binding intensity (ln)” value was 8.78 ± 0.47. For “AGGAAAAAATCGAGTAGTACACATTTAGAAATATAA [XGTACX_site8019]”, the “gcPBM binding intensity (ln)” value was 8.85 ± 0.45. “ATATCACATATATATATATATATATATATATATATA [XGTACX_negctrl_site463]” was tested, and the “gcPBM binding intensity (ln)” value was 9.955 ± 0.021. With “AAAATTGATATATGCACACATATATATATTAAATAT [CACACA_site763]” the “gcPBM binding intensity (ln)” value was 9.05 ± 0.42. For “TTTCATTCTGGTATCACACATTTATTTTCTAGTTTA [CACACA_site4286]”, the “gcPBM binding intensity (ln)” value was 8.87 ± 0.47. “AAAAAAAAAAAAAACACACATACACATATATTTTTA [CACACA_site3893]” was tested, and the “gcPBM binding intensity (ln)” value was 8.87 ± 0.43. In the case of “AGTTATAATAAAAAATGTACGTATTATCATTAAGAA [XGTACX_site4244]”, the “gcPBM binding intensity (ln)” value is reported as 8.77 ± 0.35. “TATAAATATAAAAGGAGTACAAATATATATATATAT [XGTACX_site1386]” was tested, and the “gcPBM binding intensity (ln)” value was 9.4 ± 0.12. “TTTTTTTTTATAGCTAAACACACATAAGAATATATG [CACACA_site8282]” was tested, and the “gcPBM binding intensity (ln)” value was 8.57 ± 0.5. In the case of “AAAAAAATTAAACATACACACGTTACTATTTTTATA [CACACA_site5009]”, the “gcPBM binding intensity (ln)” value is reported as 8.86 ± 0.57. For “GAAAATAAAAAATATGAACACACATATATAACAAAA [CACACA_site7975]”, the “gcPBM binding intensity (ln)” value was 9.18 ± 0.47. In the case of “TCCTAATATATGTATGCACACACAATATATACATAT [CACACA_site9111]”, the “gcPBM binding intensity (ln)” value is reported as 9.39 ± 0.21. With “CATATCAATAATATCACACATATATGTGATTTTATT [CACACA_site5053]” the “gcPBM binding intensity (ln)” value was 8.9 ± 0.35. In the case of “TTATTAATTTATAAATGTACGAATTTTTTATTTAAC [XGTACX_site7605]”, the “gcPBM binding intensity (ln)” value is reported as 8.39 ± 0.47.
